# Experimental data published in the antibiotic and cytotoxicity screens of Wong et al. (2023).
# Some of the results follow.
# Tests used:
# HSkMC = human skeletal muscle cells; assay: cytotoxicity call (relative viability < 0.9); conditions: 10 µM
# HepG2 = assay: cytotoxicity call (relative viability < 0.9); conditions: 10 µM
# S. aureus RN4220 = assay: growth inhibition call (relative growth <= 0.2); conditions: 50 µM
Compound,cytotoxicity call (HSkMC),cytotoxicity call (HepG2),growth inhibition call (S. aureus RN4220)
O=C(C[C@@H]1CC[C@@H]2[C@H](COC[C@H](O)CN2CC2CCOCC2)O1)N1CCOCC1,inactive,inactive,inactive
C[C@H]1CN([C@@H](C)CO)C(=O)c2cccc(NC(=O)Nc3cccc4ccccc34)c2O[C@H]1CN(C)Cc1ccc(C(=O)O)cc1,inactive,inactive,inactive
Cc1ccc(S(=O)(=O)N(C)C[C@H]2Oc3ncc(C#CC4(O)CCCC4)cc3C(=O)N([C@@H](C)CO)C[C@@H]2C)cc1,inactive,inactive,inactive
C[C@H]1CCCCO[C@@H](CN(C)Cc2ccncc2)[C@@H](C)CN([C@@H](C)CO)C(=O)c2cc(NC(=O)Cc3ccccc3)ccc2O1,inactive,inactive,inactive
C[C@@H]1CN([C@H](C)CO)C(=O)c2cccc(NS(=O)(=O)c3cn(C)cn3)c2O[C@H]1CN(C)CC1CC1,inactive,inactive,inactive
Cc1noc(C)c1S(=O)(=O)N(C)C[C@@H]1Oc2ccc(NS(=O)(=O)c3cn(C)cn3)cc2CC(=O)N([C@H](C)CO)C[C@H]1C,inactive,inactive,inactive
C[C@H]1CCCCO[C@H](CN(C)S(=O)(=O)c2ccc(Cl)cc2)[C@@H](C)CN([C@@H](C)CO)C(=O)c2cc(NC(=O)Nc3ccc4c(c3)OCO4)ccc2O1,inactive,active,inactive
O=C(O)c1cc2ccccc2s1,inactive,inactive,inactive
COc1ccc(NC(=O)Nc2ccc3c(c2)C(=O)N([C@@H](C)CO)C[C@H](C)[C@@H](CN(C)C(=O)Nc2ccc(OC)cc2)OCCCC[C@H](C)O3)cc1,inactive,inactive,inactive
C[C@@H]1CN([C@@H](C)CO)C(=O)Cc2cc(NS(=O)(=O)c3ccc(F)cc3)ccc2O[C@@H]1CN(C)S(=O)(=O)c1cn(C)cn1,inactive,inactive,inactive
C[C@@H]1CCCCO[C@@H](CN(C)C(=O)c2ccncc2)[C@@H](C)CN([C@@H](C)CO)C(=O)c2cc(NC(=O)NC3CCCCC3)ccc2O1,inactive,inactive,inactive
C[C@H]1CN([C@@H](C)CO)C(=O)Cc2cc(NC(=O)Cn3cnnn3)ccc2O[C@H]1CN(C)Cc1ccc(C(F)(F)F)cc1,inactive,inactive,inactive
COc1cc2c(cc1OC)C(=O)NCC2,inactive,active,inactive
C[C@H](CO)N1C[C@H](C)[C@H](CN(C)S(=O)(=O)c2cn(C)cn2)Oc2c(NC(=O)Nc3ccc(F)cc3)cccc2C1=O,inactive,inactive,inactive
C[C@@H]1CN([C@@H](C)CO)C(=O)c2cccc(NS(C)(=O)=O)c2O[C@H]1CN(C)C(=O)Nc1ccc(C(F)(F)F)cc1,inactive,inactive,active
Cc1noc(C)c1S(=O)(=O)N(C)C[C@@H]1Oc2ccc(NC(=O)Cc3ccccc3)cc2CC(=O)N([C@H](C)CO)C[C@H]1C,inactive,inactive,inactive
O=C(C[C@H]1CC[C@H]2[C@@H](COC[C@H](O)CN2C(=O)Nc2ccc(Cl)cc2)O1)NCCc1ccncc1,inactive,inactive,inactive
O=C(C[C@@H]1C=C[C@H](NS(=O)(=O)c2ccc(F)cc2)[C@H](CO)O1)NCc1ccc(Cl)c(Cl)c1,inactive,inactive,inactive
C[C@H](CO)N1C[C@H](C)[C@H](CN(C)C(=O)Nc2ccc(F)cc2)Oc2c(NC(=O)Nc3ccc(C(F)(F)F)cc3)cccc2C1=O,active,active,active
Cc1ccc(S(=O)(=O)Nc2ccc3c(c2)C(=O)N([C@H](C)CO)C[C@H](C)[C@H](CN(C)C(=O)NC(C)C)O3)cc1,inactive,inactive,inactive
C[C@@H]1CN([C@H](C)CO)C(=O)Cc2cc(NC(=O)CCC(F)(F)F)ccc2O[C@@H]1CN(C)Cc1ccc(C(F)(F)F)cc1,inactive,inactive,inactive
C[C@H]1CCCCO[C@@H](CN(C)Cc2ccc(C(F)(F)F)cc2)[C@@H](C)CN([C@@H](C)CO)C(=O)c2cc(NC(=O)CCC(F)(F)F)ccc2O1,inactive,active,inactive
C[C@@H](OC[C@@]1(c2ccccc2)CC[C@]2(CCC(=O)N2)CN1)c1cc(C(F)(F)F)cc(C(F)(F)F)c1,inactive,inactive,active
Cc1noc(C)c1S(=O)(=O)N(C)C[C@@H]1OCCCC[C@H](C)Oc2ccc(NC(=O)Nc3ccc(F)cc3)cc2C(=O)N([C@H](C)CO)C[C@H]1C,inactive,inactive,inactive
